T1: RBFOX1 RRM RbFoxmut (Fox-RRM*) (Homo sapiens, UniProt Q9NWB1 109-208, R118D;E147R;N151S;E152T)
T1 sequence: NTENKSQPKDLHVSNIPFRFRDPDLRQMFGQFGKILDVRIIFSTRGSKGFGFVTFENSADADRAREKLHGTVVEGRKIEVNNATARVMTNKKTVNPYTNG

B1: AAAGUUA (DNA:RNA)
RNA: GGGAGACCGGAAUUCAGAUUGUCCAAAGUUAUUAAAUCCCGUCGUAGCCACCA
DNA 1: CAATCTGAATTCCGGTCTCCC
DNA 2: TGGTGGCTACGACGGGATT
B2: ACCAUAU (DNA:RNA)
RNA: B1 RNA with A26C, A27C, G28A, U30A, A31U
DNA 1: CAATCTGAATTCCGGTCTCCC
DNA 2: TGGTGGCTACGACGGGATT
B3: GUCUUGA (DNA:RNA)
RNA: B1 RNA with A25G, A26U, A27C, G28U, U30G
DNA 1: CAATCTGAATTCCGGTCTCCC
DNA 2: TGGTGGCTACGACGGGATT
B4: ACAUGGC (DNA:RNA)
RNA: B1 RNA with A26C, G28U, U29G, U30G, A31C
DNA 1: CAATCTGAATTCCGGTCTCCC
DNA 2: TGGTGGCTACGACGGGATT
B5: UAGCACC (DNA:RNA)
RNA: B1 RNA with A25U, A27G, G28C, U29A, U30C, A31C
DNA 1: CAATCTGAATTCCGGTCTCCC
DNA 2: TGGTGGCTACGACGGGATT
B6: UUAGGUG (DNA:RNA)
RNA: B1 RNA with A25U, A26U, U29G, A31G
DNA 1: CAATCTGAATTCCGGTCTCCC
DNA 2: TGGTGGCTACGACGGGATT
B7: AUUCAGC (DNA:RNA)
RNA: B1 RNA with A26U, A27U, G28C, U29A, U30G, A31C
DNA 1: CAATCTGAATTCCGGTCTCCC
DNA 2: TGGTGGCTACGACGGGATT
B8: UGACCUA (DNA:RNA)
RNA: B1 RNA with A25U, A26G, G28C, U29C
DNA 1: CAATCTGAATTCCGGTCTCCC
DNA 2: TGGTGGCTACGACGGGATT
B9: CCGCUUA (DNA:RNA)
RNA: B1 RNA with A25C, A26C, A27G, G28C
DNA 1: CAATCTGAATTCCGGTCTCCC
DNA 2: TGGTGGCTACGACGGGATT
B10: CGGUAUC (DNA:RNA)
RNA: B1 RNA with A25C, A26G, A27G, G28U, U29A, A31C
DNA 1: CAATCTGAATTCCGGTCTCCC
DNA 2: TGGTGGCTACGACGGGATT
B11: GAAGGGU (DNA:RNA)
RNA: B1 RNA with A25G, U29G, U30G, A31U
DNA 1: CAATCTGAATTCCGGTCTCCC
DNA 2: TGGTGGCTACGACGGGATT
B12: AGUCUGG (DNA:RNA)
RNA: B1 RNA with A26G, A27U, G28C, U30G, A31G
DNA 1: CAATCTGAATTCCGGTCTCCC
DNA 2: TGGTGGCTACGACGGGATT
B13: UAUGUAC (DNA:RNA)
RNA: B1 RNA with A25U, A27U, U30A, A31C
DNA 1: CAATCTGAATTCCGGTCTCCC
DNA 2: TGGTGGCTACGACGGGATT
B14: AUAUGGU (DNA:RNA)
RNA: B1 RNA with A26U, G28U, U29G, U30G, A31U
DNA 1: CAATCTGAATTCCGGTCTCCC
DNA 2: TGGTGGCTACGACGGGATT
B15: CAGCCGG (DNA:RNA)
RNA: B1 RNA with A25C, A27G, G28C, U29C, U30G, A31G
DNA 1: CAATCTGAATTCCGGTCTCCC
DNA 2: TGGTGGCTACGACGGGATT
B16: CGCUGAC (DNA:RNA)
RNA: GGGAGACCGGAAUUCAGAUUGUCCCGCUGACUUAAAUCCCGUCGUAGCCACCA
DNA 1: CAATCTGAATTCCGGTCTCCC
DNA 2: TGGTGGCTACGACGGGATT
B17: AACAGCU (DNA:RNA)
RNA: B1 RNA with A27C, G28A, U29G, U30C, A31U
DNA 1: CAATCTGAATTCCGGTCTCCC
DNA 2: TGGTGGCTACGACGGGATT
B18: GCUCUAG (DNA:RNA)
RNA: B1 RNA with A25G, A26C, A27U, G28C, U30A, A31G
DNA 1: CAATCTGAATTCCGGTCTCCC
DNA 2: TGGTGGCTACGACGGGATT
B19: AUGGAUU (DNA:RNA)
RNA: B1 RNA with A26U, A27G, U29A, A31U
DNA 1: CAATCTGAATTCCGGTCTCCC
DNA 2: TGGTGGCTACGACGGGATT
B20: AAGACUG (DNA:RNA)
RNA: B1 RNA with A27G, G28A, U29C, A31G
DNA 1: CAATCTGAATTCCGGTCTCCC
DNA 2: TGGTGGCTACGACGGGATT

The text below walks through data of publication PMC9911399, “Two distinct binding modes provide the RNA-binding protein RbFox with extraordinary sequence specificity”.

Residue numbers refer to the chain shown, from its start. The list shows a part of the results.

The target in the test is T1, RBFOX1 RRM RbFoxmut (Fox-RRM*). The test can be described thus: EMSA; HiTS-Eq, 1 nM pool, 10 min; buffer printed only for the single-RNA assays: 10 mM Tris pH 7.5, 150 mM NaCl, 3.4 mM EDTA, 0.001% NP-40, 30 C. The note with it: tags: His6 N-terminal (pET28a); label: 5' 32P. In outline: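 Purified RbFox RRM, wild type or mutant, was incubated for 10 min in 50 µL with 1 nM of a 5′-radiolabelled RNA pool carrying 7 randomized nucleotides, whose flanks were annealed to DNA oligonucleotides, over a series of increasing protein concentrations. Unbound RNA was resolved on 8% native PAGE, cut out, reverse-transcribed, barcoded by PCR and sequenced on an Illumina HiSeq 2500. Relative association constants were derived from changes in read counts for each RNA species versus the control reaction and normalised to the cognate motif.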
With B1, the binding signal is 0.157 KA relative to UGCAUGU.

B2: the binding signal was 0.104 KA relative to UGCAUGU.

With B3, the binding signal was 0.407 KA relative to UGCAUGU.

B4: the binding signal is 0.151 KA relative to UGCAUGU.

For the molecule B5, the binding signal is 0.0974 KA relative to UGCAUGU.

In the case of B6, the binding signal was 0.139 KA relative to UGCAUGU.

Consider B7, for which the binding signal was 0.0984 KA relative to UGCAUGU.

For the molecule B8, the binding signal is 0.107 KA relative to UGCAUGU.

For the molecule B9, the binding signal was 0.0982 KA relative to UGCAUGU.

B10: the binding signal was 0.245 KA relative to UGCAUGU.

Take B11: the binding signal is 0.0708 KA relative to UGCAUGU.

For the molecule B12, the binding signal was 0.096 KA relative to UGCAUGU.

Take B13: the binding signal is 0.107 KA relative to UGCAUGU.

For B14, the binding signal is 0.124 KA relative to UGCAUGU.

With B15, the binding signal is 0.0723 KA relative to UGCAUGU.

In the case of B16, the binding signal is 0.112 KA relative to UGCAUGU.

Turning to B17, the binding signal was 0.0625 KA relative to UGCAUGU.

As to B18, the binding signal is 0.121 KA relative to UGCAUGU.

For the molecule B19, the binding signal is 0.156 KA relative to UGCAUGU.

Take B20: the binding signal is 0.103 KA relative to UGCAUGU.
